Laboratory results from PubChem BioAssay AID1345083 (National Center for Advancing Translational Sciences (NCATS), 2018).
Values joined by “and” are separate entries in the source; they are usually repeats but may differ in a detail not shown here. Equal values may be shown once. Hit rate of the full screen: of about 94,000 compounds, about 6,200 (6.6%) were called active. The shares of active, inactive and inconclusive entries below differ from those in the screen. The call rests on the fitted dose curve; in most records, active means well fitted inhibition curve with a large enough effect; inconclusive means small, poorly fitted or top-dose-only effect; inactive means flat fitted curve, though single readings scatter. A potency beside an inconclusive call is a rough fit, not a confirmed value.

Test: Cytotoxic Profiling in HEK 293 Cell Line of Diverse Libraries Using Quantitative High-Throughput Screening; further: nearly all actives have a fitted effect of over 60% in size
Conditions: HEK 293 viability, ATP luminescence (CellTiter-Glo), 48-72 h; activity change, negative = cytotoxicity: at 115 µM (top of the series) unless noted; series mostly up to 115 µM
In short: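 250 HEK 293 cells/well; compound by pintool; incubated 48 or 72 hr at 37 degree Celsius; CellTiter-Glo added, 10 min RT, luminescence imaged.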
On the % scale 0 is the no-effect control and ±100 the full control effect; potency means the concentration at half of the fitted maximal effect; tags describe the fitted curve by direction and shape.

Question: For `Cc1cccc2c1O[C@H]1[C@H](CO)CN([S+](=O)([O-])c3ccccc3)[C@@H]21`, which Potency is on record?
Answer: inconclusive: 50.1 µM [inhibitor, partial curve, poor fit]

Question: For `CCNC(=O)N[C@@H]1C=C[C@@H](c2c(C)nn(-c3ccc(C(C)(C)C)cc3)c2C)C1`, which Potency is on record?
Answer: active: 35.5 µM

Question: Which Potency does the source give for `CC(C)[S+](=O)([O-])N1CCC2OCCN(Cc3ccccc3F)C(=O)C2C1` (stereo unspecified) here?
Answer: inconclusive: 112 µM [inhibitor, partial curve, poor fit]

Question: For `CCOc1ccc(NC(=O)Cn2c(-c3ccccc3)nc(C)cc2=O)cc1`, which Potency is on record?
Answer: inconclusive: 7.08 µM [inhibitor, full curve]

Question: For `COc1ccc(-c2ccnc3nc(Cc4cc(F)cc(F)c4)nn23)c(F)c1`, which Potency is on record?
Answer: active: 39.8 µM

Question: With `O=C(C1CCCC1)N1CC2(CCN(C3CCCCC3)CC2)Cc2ccccc21` as the compound, how does the Potency read?
Answer: inconclusive: 50.1 µM [inhibitor, partial curve]

Question: Which Potency does the source give for `COc1cccc(CN2CCc3nc(C(=O)NCC4CC4)oc3CC2)c1` here?
Answer: inconclusive: 39.8 µM [inhibitor, partial curve, poor fit]

Question: With `COc1ccc(NC(=O)c2cnc3c(c2)N(C(=O)Cc2ccccc2OC)CCC3)cn1` as the compound, how does the Potency read?
Answer: inconclusive: 70.8 µM [inhibitor, partial curve, poor fit]

Question: For `Cc1ccc(C(=O)N2CCCC(C(=O)N3CCC4(CC3)CC(=O)Nc3ccccc3O4)C2)cc1` (stereo unspecified), which Potency is on record?
Answer: inconclusive: 89.1 µM [inhibitor, single point]

Question: For `COc1ccc(CCN2CC(C(=O)N3CCN(C)CC3)CCC2=O)cc1` (stereo unspecified), which Potency is on record?
Answer: inconclusive: 100 µM [inhibitor, single point]

Question: With `CCOC(=O)[C@H]1[C@@H](O)C(=O)N(C(C)C)C12CCN(C(=O)c1ccc(NC(C)=O)cc1)CC2` as the compound, how does the “activity change, negative = cytotoxicity” value read?
Answer: inactive: -8.41%

Question: For `O=C(NCc1cccnc1)c1nc(-c2ccccc2)c2ccccn12`, which Potency is on record?
Answer: inconclusive: 70.8 µM [inhibitor, partial curve, poor fit]

Question: With `COc1ccc(CNC(=O)[C@@H]2CCC[C@@H](NCc3cccc(Cl)c3)CN(C)C(=O)C2)cc1` as the compound, how does the Potency read?
Answer: inconclusive: 79.4 µM [inhibitor, partial curve]

Question: Which Potency does the source give for `O=C(C1CCCC1)N1CCC(C2CCN(Cc3cccc(F)c3F)CC2)C1` (stereo unspecified) here?
Answer: inconclusive: 63.1 µM [inhibitor, partial curve, poor fit]

Question: With `CSc1ccc(-c2cccc(C(=O)NCCNC(=O)Cc3ccccn3)c2)cc1` as the compound, how does the “activity change, negative = cytotoxicity” value read?
Answer: inactive: -0.0265%

Question: With `CCOC(=O)C1(Cc2ccc(F)cc2F)CCCN(C(=O)Nc2ccc3c(c2)OCO3)C1` (stereo unspecified) as the compound, how does the Potency read?
Answer: inconclusive: 56.2 µM [inhibitor, partial curve, poor fit]

Question: With `O=C(Cc1ccccn1)NCCNC(=O)c1cccc(-c2ccsc2)c1` as the compound, how does the “activity change, negative = cytotoxicity” value read?
Answer: inactive: -29.5% [at 172 µM]

Question: With `O=C(NCc1ccccc1C(F)(F)F)c1cccc2c1CCN2C(=O)C1CC1` as the compound, how does the “activity change, negative = cytotoxicity” value read?
Answer: inactive: -30.9%

Question: With `COc1ccc(CN2Cc3cc(NC(=O)Cc4cccs4)ccc3OC(C)C2=O)cc1` (stereo unspecified) as the compound, how does the Potency read?
Answer: inconclusive: 50.1 µM [inhibitor, partial curve, poor fit]

Question: Which Potency does the source give for `O=C(Cc1cccc(Cl)c1)NC1CCN(c2nc3ncccc3o2)CC1` here?
Answer: inactive and inconclusive: 100 µM [inhibitor, single point]

Question: For `O=C(NCc1ccc(Cl)cc1)c1noc(-c2ccc3c(c2)OCO3)n1`, which Potency is on record?
Answer: inconclusive: 44.7 µM [inhibitor, partial curve]

Question: With `O=C(NCc1ccncc1)[C@@H]1C[C@@H](c2ccc(F)cc2)N(Cc2ccccc2)C1` as the compound, how does the Potency read?
Answer: inconclusive: 112 µM [inhibitor, single point]

Question: For `COCC1CCN(Cc2cc3ccc(OC)cc3nc2-c2cccc(C)c2)C1` (stereo unspecified), which Potency is on record?
Answer: inconclusive: 56.2 µM [inhibitor, partial curve, poor fit]

Question: Which Potency does the source give for `CN(Cc1ccccc1)[C@@H]1[C@H](O)[C@H](CO)O[C@@H]1CNC(=O)Nc1ccc(F)cc1F` here?
Answer: inconclusive: 50.1 µM [inhibitor, partial curve, poor fit]

Question: Which Potency does the source give for `CN(C)C[C@@H]1CN(Cc2ccccc2)C[C@H]1NC(=O)c1cccs1` here?
Answer: inconclusive: 89.1 µM [inhibitor, single point]

Question: Which “activity change, negative = cytotoxicity” value does the source give for `COCCn1cnc2ccc(-c3cccc(O)c3)nc2c1=O` here?
Answer: inactive: -21.2% [at 172 µM]

Question: With `Cc1oc(C2CCN(C(=O)c3cc(CN4CCOCC4)on3)CC2)nc1C(=O)N1CCCC1` as the compound, how does the “activity change, negative = cytotoxicity” value read?
Answer: inactive: -13.8%

Question: For `O=C(Cc1ccsc1)N1CCC2(CC1)CC(N(Cc1ccccc1)C1CC1)CCO2` (stereo unspecified), which Potency is on record?
Answer: inconclusive: 89.1 µM [inhibitor, single point]

Question: With `O[C@H]1[C@@H]2CN(Cc3ccccc3)C[C@@H]2[C@@H]2O[C@H]1C[C@@H]2c1cccc(F)c1` as the compound, how does the Potency read?
Answer: inconclusive: 89.1 µM [inhibitor, partial curve, poor fit]

Question: For `CN(Cc1ccccc1)C(=O)[C@@H]1CCCN1c1ccnc2ccnn12`, which Potency is on record?
Answer: inconclusive: 50.1 µM [inhibitor, partial curve, poor fit]

Question: For `COc1ccc(Nc2cc3c(cn2)NCCN(Cc2ccccc2)C3)cn1`, which Potency is on record?
Answer: inconclusive: 100 µM [inhibitor, partial curve]

Question: Which Potency does the source give for `Cc1ccc(F)cc1S(=O)(=O)N1CCC(OC2CCN(Cc3ccccc3)CC2)CC1` here?
Answer: inconclusive: 56.2 µM [inhibitor, partial curve, poor fit]

Question: With `COc1cccc(C(=O)N2CC(=O)N(Cc3ccccc3)CC(O)C2)c1` (stereo unspecified) as the compound, how does the “activity change, negative = cytotoxicity” value read?
Answer: inactive: -12.7%

Question: Which “activity change, negative = cytotoxicity” value does the source give for `CCOC(=O)C1CCN(C(=O)c2ccc3nnc(CC4CC4)n3c2)CC1` here?
Answer: inactive: -0.22%

Question: With `Cc1ccc(C)c(C(O)Cn2ccn3nc(-c4cccc(Br)c4)cc3c2=O)c1` (stereo unspecified) as the compound, how does the Potency read?
Answer: inconclusive: 79.4 µM [inhibitor, partial curve, poor fit]

Question: Which “activity change, negative = cytotoxicity” value does the source give for `O=C(N[C@@H]1CCN(C(=O)Cc2noc3ccccc23)C[C@H]1O)c1cccnc1` here?
Answer: inactive: -3.65%

Question: For `COCCn1c(C)cnc1CC1CCN(S(=O)(=O)c2cccc(OC)c2)C1` (stereo unspecified), which Potency is on record?
Answer: inconclusive: 35.5 µM [inhibitor, full curve]

Question: With `COc1ccc(/C=C/c2ccc3c(c2)C(=O)N2C[C@@H](NC(=O)c4cccn4C)C[C@H]2C(=O)N3)cc1` as the compound, how does the Potency read?
Answer: inconclusive: 56.2 µM [inhibitor, partial curve, poor fit]

Question: For `COCC[C@]1(O)CCN(C(=O)C2CCN(C3CCCC3)CC2)C[C@H]1C`, which “outcome” value is on record?
Answer: inactive

Question: With `NC(=O)c1cccc(-c2cc(-c3cccnc3)c3cncn3c2)c1` as the compound, how does the Potency read?
Answer: inconclusive: 50.1 µM [inhibitor, partial curve]

Question: For `COc1ccc(CN2CCc3nc(C4CC4)nc(-c4ccc(OC)cc4)c3CC2)cc1`, which Potency is on record?
Answer: inconclusive: 50.1 µM [inhibitor, partial curve, poor fit]

Question: With `CC1=NS(=O)(=O)N(C)C=C1C(=O)OCc1noc(-c2ccccc2Cl)n1` as the compound, how does the Potency read?
Answer: inconclusive: 44.7 µM [inhibitor, partial curve, poor fit]

Question: For `O=C(N[C@@H]1CN(C2CCC2)C[C@H]1CO)c1cnccn1`, which Potency is on record?
Answer: inconclusive: 14.1 µM [inhibitor, partial curve, poor fit]

Question: For `O=C(C1CCCN([S+](=O)([O-])c2ccccc2)C1)N1CCC(N2Cc3ccccc3C2=O)CC1` (stereo unspecified), which “activity change, negative = cytotoxicity” value is on record?
Answer: inactive: -26.1%

Question: With `Cc1ccc(-n2nc(-c3c(C)nc4scc(CC(=O)Nc5ccc(F)cc5)n4c3=O)cc2C)cc1` as the compound, how does the Potency read?
Answer: inconclusive: 89.1 µM [inhibitor, partial curve, poor fit]

Question: Which Potency does the source give for `COc1ccc(CN2CCc3oc(C)c(C(=O)N4CCOCC4)c3C2)cc1` here?
Answer: inconclusive: 89.1 µM [inhibitor, single point]

Question: For `COCCN1CCCCCC(O)c2cc(C(=O)N3CCN(c4ccccc4)CC3)ccc21` (stereo unspecified), which Potency is on record?
Answer: inconclusive: 79.4 µM [inhibitor, single point]

Question: For `O=C1CC2(CCN(C(=O)C3CCCN(C(=O)Nc4ccccc4)C3)CC2)Oc2ccccc2N1` (stereo unspecified), which Potency is on record?
Answer: active: 31.6 µM

Question: Which Potency does the source give for `Cc1ccc(CN2CCC(N3CCCC(C(=O)NCCc4ccccc4)C3)CC2)o1` (stereo unspecified) here?
Answer: inconclusive: 44.7 µM [inhibitor, partial curve, poor fit]

Question: With `COc1cccc(-c2ccc(C(=O)NCCNC(=O)c3ccccc3)cc2)c1` as the compound, how does the Potency read?
Answer: inconclusive: 39.8 µM [inhibitor, full curve, poor fit]

Question: Which Potency does the source give for `CC(=O)Nc1cccc(C(=O)N2CCCN(c3cc(-c4ccc(Br)cc4)[nH]n3)CC2)c1` here?
Answer: inconclusive: 56.2 µM [inhibitor, partial curve, poor fit]

Question: For `CC(C)S(=O)(=O)N1CCC(F)(c2nc(-c3ccccc3)no2)CC1`, which Potency is on record?
Answer: inconclusive: 39.8 µM [inhibitor, partial curve, poor fit]

Question: Which Potency does the source give for `O=c1c2nc(NCc3cccs3)ccc2ncn1Cc1ccccc1` here?
Answer: inconclusive: 100 µM [inhibitor, partial curve]

Question: With `O=C(CN1C(=O)CNC1=O)NC1CCCN(Cc2ccccn2)C1` (stereo unspecified) as the compound, how does the Potency read?
Answer: inconclusive: 6.31 µM [inhibitor, full curve, poor fit]

Question: For `O=C(Cc1cccc(Cl)c1)NC1CCN(C(=O)c2ccc(-c3cncnc3)cc2)CC1`, which “activity change, negative = cytotoxicity” value is on record?
Answer: inactive: -27.6%

Question: Which “activity change, negative = cytotoxicity” value does the source give for `Cc1[nH]nc(CCC(=O)N2CC[C@H](N3CCOCC3)[C@H](CCC(=O)O)C2)c1C` here?
Answer: inactive: -9.11%

Question: With `CS(=O)(=O)N1CC2(CCCN2C2COC2)Cc2ccccc21` (stereo unspecified) as the compound, how does the “outcome” value read?
Answer: inactive

Question: With `O=C(N[C@H]1[C@H](O)[C@H](O)C[C@@H]1c1ccc(C(F)(F)F)nc1)c1ccc2c(c1)OCCO2` as the compound, how does the “activity change, negative = cytotoxicity” value read?
Answer: inactive: -7.92% [at 172 µM]

Question: Which Potency does the source give for `Cc1ccc(-c2ccc3nnc(CNC(=O)C4(c5ccccc5)CC4)n3n2)cc1` here?
Answer: inconclusive: 63.1 µM [inhibitor, partial curve, poor fit]

Question: For `Cc1ccc(-c2noc([C@@H]3C[C@@H](O)CN3Cc3ncc[nH]3)n2)cc1F`, which Potency is on record?
Answer: inconclusive: 126 µM [inhibitor, single point]

Question: For `CN1c2cc(C(=O)NCc3ccccc3)ccc2C(=O)N2CCCCCC21` (stereo unspecified), which Potency is on record?
Answer: inconclusive: 79.4 µM [inhibitor, partial curve, poor fit]
